This is one part of the list.
System: HepG2
Assay: cytotoxicity call (relative viability < 0.9)
Details: 10 µM

| Structure (SMILES) | cytotoxicity call |
| --- | --- |
| Cl.NCc1ccc(S(N)(=O)=O)cc1 | inactive |
| CS(=O)(=O)O.Oc1ccc(C2CNCCc3c2cc(O)c(O)c3Cl)cc1 (centres undefined) | inactive |
| COc1ccccc1S(=O)(=O)N[C@H]1CC[C@@H](CCNC(=O)C2CC2)O[C@H]1CO | inactive |
| C[C@H]1CN([C@@H](C)CO)S(=O)(=O)c2ccc(-c3cccc(C(=O)N(C)C)c3)cc2O[C@H]1CN(C)C(=O)Cc1ccccn1 | inactive |
| C[C@@H]1CCCCO[C@@H](CN(C)Cc2ccccc2)[C@H](C)CN([C@H](C)CO)C(=O)c2cc(NS(=O)(=O)c3ccccc3)ccc2O1 | inactive |
| COc1ccc(NC(=O)Nc2ccc3c(c2)C(=O)N([C@@H](C)CO)C[C@@H](C)[C@H](CN(C)Cc2ccc(C(=O)O)cc2)OCCCC[C@H](C)O3)cc1 | inactive |
| CCCNC(=O)C[C@H]1CC[C@@H]2[C@@H](COc3ccc(NC(=O)c4ccc5c(c4)OCO5)cc3C(=O)N2C)O1 | active |
| COc1ccc(-c2cc(=O)c3c(OC)c(OC)c(OC)c(OC)c3o2)cc1OC | inactive |
| O=C(NO)c1ccc(C(=O)N/N=C/[C@H](O)[C@@H](O)[C@@H](O)[C@H](O)CO)cc1 | inactive |
| CC(C)C(=O)Nc1cccc(Cl)c1 | inactive |
| c1ccc2c([C@@H]3CCCN3)cccc2c1 | inactive |
| CN1CCN(C)C2(CCN(C(=O)c3ccn[nH]3)CC2)C1=O | inactive |
| COC(=O)c1c2oc(c1C(=O)OC)C(=O)N(C)Cc1cn(nn1)C[C@@H](C)NC(=O)N[C@H](CO)CC2 | inactive |

System: S. aureus RN4220
Assay: growth inhibition call (relative growth <= 0.2)
Details: 50 µM

| Structure (SMILES) | growth inhibition call |
| --- | --- |
| CO[C@@H]1CN(C)C(=O)c2cc(NC(=O)C3CC3)ccc2OC[C@H](C)N(C(=O)Cc2ccccn2)C[C@@H]1C | inactive |
| COc1ccc(NC(=O)Nc2cccc3c2O[C@H](CN(C)S(C)(=O)=O)[C@H](C)CN([C@H](C)CO)C3=O)cc1 | inactive |
| CC(=O)N1c2ccccc2C2=NNC(=S)N[C@]21O | inactive |
| C[C@@H]1CCCCO[C@@H](CN(C)Cc2ccc(C(=O)O)cc2)[C@@H](C)CN([C@H](C)CO)C(=O)c2cc(NS(=O)(=O)c3ccc(Cl)cc3)ccc2O1 | inactive |
| CC1(C)CC(/C=C/c2ccccc2)=Nc2ccccc2N1 | inactive |
| CCCC#Cc1ccc2c(c1)O[C@H](CN(C)Cc1ccc3c(c1)OCO3)[C@H](C)CN([C@H](C)CO)S2(=O)=O | inactive |
| COc1ccc(-n2nc(CCC(=O)N(C)O)cc2-c2ccc(Cl)cc2)cc1 | inactive |
| C[C@H](CO)N1C[C@H](C)[C@H](CN(C)C(=O)Nc2ccc(C(F)(F)F)cc2)Oc2ccc(NC(=O)Nc3ccc4c(c3)OCO4)cc2CC1=O | inactive |
| C[C@@H]1CN([C@H](C)CO)C(=O)c2cc(-c3cccc(C(=O)N(C)C)c3)cnc2O[C@H]1CN(C)C(=O)Cc1ccccn1 | inactive |
| C[C@H]1CN([C@@H](C)CO)C(=O)Cc2cc(NC(=O)Cc3ccccc3)ccc2O[C@@H]1CN(C)S(=O)(=O)c1cn(C)cn1 | inactive |
| C[C@@H]1CN([C@@H](C)CO)S(=O)(=O)c2ccc(-c3ccncc3)cc2O[C@@H]1CN(C)Cc1ccc(Oc2ccccc2)cc1 | inactive |
| CC(=O)N1[C@H](CO)[C@H](c2ccccc2)[C@@H]1CNC(=O)CN1CCOCC1 | inactive |
| NC(C(=O)O)C(O)c1ccc(O)c(O)c1 (centres undefined) | inactive |
| C[C@H](CO)N1C[C@H](C)[C@@H](CN(C)Cc2ccc3c(c2)OCCN3C)OCc2cn(nn2)CCCC1=O | inactive |
| O=C(Nc1cccc2cccnc12)[C@@H]1[C@H](c2ccc(Br)cc2)CN1C(=O)OCc1ccc([N+](=O)[O-])cc1 | inactive |
| C[C@H](CO)N1C[C@H](C)[C@@H](CN(C)C(=O)NC2CCCCC2)OCCCC[C@H](C)Oc2ccc(NC(=O)Nc3ccc(C(F)(F)F)cc3)cc2C1=O | inactive |
| Cc1cccc(NC(=O)CN2C(=O)CNC2=O)c1 | inactive |
| COc1ccc(NC(=O)N(C)C[C@H]2Oc3ccc(NC(=O)CCCN(C)C)cc3C(=O)N([C@H](C)CO)C[C@@H]2C)cc1 | inactive |
| C[C@@H]1CN([C@H](C)CO)C(=O)Cc2cc(NC(=O)Nc3ccc4c(c3)OCO4)ccc2O[C@H]1CN(C)S(=O)(=O)c1cn(C)cn1 | inactive |
| C[C@H](CO)N1C[C@H](C)[C@@H](CN(C)C(=O)c2ccncc2)Oc2cc(C#CC3(O)CCCC3)ccc2S1(=O)=O | inactive |
| C[C@H]1CCCCO[C@H](CN(C)C(=O)Nc2cccc3ccccc23)[C@@H](C)CN([C@@H](C)CO)C(=O)c2cc(NC(=O)Nc3ccc4c(c3)OCO4)ccc2O1 | inactive |
